# About 14,000 (4.5%) of roughly 310,000 compounds showed an effect of 50% or more. Effects have a minus sign here. Some of the results follow.
# Target: human ether-à-go-go-related gene (hERG) potassium channel (human, UniProt Q12809)
# Assay: primary screen, population patch clamp on CHO cells stably expressing hERG
# 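Also: peak tail current of the secondary pulse compared with the same well before compound.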
# Sequence of human ether-à-go-go-related gene (hERG) potassium channel (Q12809 whole entry, looked up): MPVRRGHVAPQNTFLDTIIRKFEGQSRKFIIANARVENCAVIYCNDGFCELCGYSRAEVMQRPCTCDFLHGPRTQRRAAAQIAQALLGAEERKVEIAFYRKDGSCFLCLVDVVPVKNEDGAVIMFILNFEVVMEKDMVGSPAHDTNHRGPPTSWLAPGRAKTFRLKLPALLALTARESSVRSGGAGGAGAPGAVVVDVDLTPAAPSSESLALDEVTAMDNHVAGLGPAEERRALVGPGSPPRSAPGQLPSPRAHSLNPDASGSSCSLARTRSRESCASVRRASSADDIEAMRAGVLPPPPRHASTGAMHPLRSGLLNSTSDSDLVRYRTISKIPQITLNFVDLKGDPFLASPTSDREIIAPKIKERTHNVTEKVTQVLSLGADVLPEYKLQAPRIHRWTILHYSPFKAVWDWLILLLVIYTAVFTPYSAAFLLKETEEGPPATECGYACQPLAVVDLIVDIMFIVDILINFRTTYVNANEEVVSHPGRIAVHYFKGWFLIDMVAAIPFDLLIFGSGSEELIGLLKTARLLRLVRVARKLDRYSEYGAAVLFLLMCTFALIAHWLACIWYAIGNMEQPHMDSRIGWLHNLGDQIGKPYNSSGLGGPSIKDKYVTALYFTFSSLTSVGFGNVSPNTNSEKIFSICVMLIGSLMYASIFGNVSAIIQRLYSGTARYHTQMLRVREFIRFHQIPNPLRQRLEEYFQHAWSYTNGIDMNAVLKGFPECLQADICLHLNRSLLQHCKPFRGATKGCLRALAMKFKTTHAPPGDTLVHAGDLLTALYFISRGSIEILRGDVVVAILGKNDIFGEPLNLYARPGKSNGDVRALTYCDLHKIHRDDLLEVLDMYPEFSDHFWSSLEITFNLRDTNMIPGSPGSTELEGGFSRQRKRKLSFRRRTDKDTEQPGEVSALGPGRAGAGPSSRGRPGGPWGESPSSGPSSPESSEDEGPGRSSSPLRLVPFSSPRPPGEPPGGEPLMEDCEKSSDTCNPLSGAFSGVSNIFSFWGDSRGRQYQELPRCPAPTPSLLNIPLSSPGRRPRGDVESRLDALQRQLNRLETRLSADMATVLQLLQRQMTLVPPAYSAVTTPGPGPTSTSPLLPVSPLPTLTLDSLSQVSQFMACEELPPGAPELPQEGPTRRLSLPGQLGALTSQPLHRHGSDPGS
row,Structure (SMILES),"hERG current change (%, negative = inhibition) at 10uM [%]"
1,O=C1/C(=C/c2cccnc2)N2CCC1CC2,34.6
2,O=C(COC(=O)C1CCC1)c1c[nH]c2ccccc12,0.941
3,CCCCCCc1nc2ccccc2c(=O)n1N,-6.75
4,Cc1ccc(CC(=O)Nc2ccc(C(=O)N3CCOCC3)cc2)cc1,-20.7
5,CN(C(=O)CSc1nnc(-c2n[nH]c3ccccc23)o1)c1ccccc1,12
6,CCCc1nc2sc(C(=O)OCC)c(N)c2c2c1COC(C)(C)C2,-3.77
7,COC(=O)c1ccc(S(=O)(=O)N2CCCCCC2)cc1,-5.64
8,Cc1cccc(C)c1NC(=O)C1CC2CCC1C2 (stereo not drawn),22.1
9,CN(C)C(=O)[C@H]1C[C@H]1[C@@H](O)[C@H](CO)NC(=O)[C@H](Cc1ccccc1)NC(=O)OC(C)(C)C,1.91
10,COc1ccc(S(=O)(=O)NCC2CCCO2)cc1C(=O)O (stereo not drawn),17.7
11,CCOCCCNC1=C(Cl)C(=O)c2ccccc2C1=O,1.61
12,O=C(c1ccccc1)N1N=C(c2ccco2)CC1c1cccs1 (stereo not drawn),-14.9
13,O=C(O)COCC(=O)Nc1ccc2c(c1)CCC2,14.7
14,COc1ccc(NC(=O)N(CCO)Cc2cc3c(C)cc(C)cc3[nH]c2=O)cc1,-15.3
15,COC(=O)c1ccc(NC(=O)CN(c2ccc(C)cc2)S(=O)(=O)c2c(C)nn(C)c2C)cc1,16.5
16,CCOC(=O)c1sc2ncnc(N3CCN(C(=O)OCC)CC3)c2c1C,-53.4
17,O=C(NC1CCCCC1)C12CC3CC(CC(Cl)(C3)C1)C2,-8.27
18,CC1(C(=O)N(CC(=O)NC2CCCC2)Cc2ccccc2)CC(=O)N=C2C=CC=CN21 (stereo not drawn),17
19,CC(=O)Nc1ccc(S(=O)(=O)NCc2nnnn2-c2ccc(F)cc2)cc1,3.41
20,Cc1ccc(C(=O)COC(=O)CCC(=O)NC2CCCCC2)cc1C,14.8
21,Fc1ccccc1CNc1cc(Cl)cc(Cl)c1,15.2
22,Cc1ccc(-n2c(=O)[nH]cc(C(=O)Nc3ccc4c(c3)OCCO4)c2=O)cc1C,-5.33

row,Structure (SMILES),"hERG current change (%, negative = inhibition) at 10uM [%]"
1,O=C(NCc1cccc(Cl)c1)N1CCN(S(=O)(=O)c2ccccc2F)CC1,-25.5
2,Cc1ccc2c(n1)CC(C)(C)CC2=O,14.3
3,Cc1cccc(Cn2c(SCCN3CCCCC3)nc3c2c(=O)[nH]c(=O)n3C)c1,-79.1
4,COc1ccc(OC)c(C2(O)CSC(=Nc3cccnc3)N2Cc2ccco2)c1 (stereo not drawn),-16.3
5,CN(CC(=O)Nc1ccc(Cl)cc1)C(=O)c1ccc(COc2ccccc2)cc1,3.79
6,C=CCOC(=O)C1=C[C@H](c2cn(C(C)=O)c3ccccc23)[C@@H](CCCO)[C@H](OCC)O1,-42.2
7,CC(Sc1nc2cc(Cl)ccc2s1)C(=O)Nc1ccc2c(c1)OCO2 (stereo not drawn),6.08
8,CCOc1ccccc1C1CC(c2cccc(NS(C)(=O)=O)c2)=NN1C(=O)c1ccccc1 (stereo not drawn),-38.1
9,CCOc1ccc(OCCOCCNCCOC)cc1,-0.544
10,O=C(OCc1ccc(Br)cc1)c1cccnc1,-5.96
11,CCSc1nnc([C@@H](N)Cc2ccccc2)o1.Cl,-10.4
12,O=[N+]([O-])/C=C/c1cn(Cc2ccc(Cl)cc2)c2ccccc12,2.65
13,CC(Oc1coc(CN2CCN(C(=O)c3ccco3)CC2)cc1=O)c1ccccc1 (stereo not drawn),11.5
14,Cc1noc(C)c1C(=O)Nc1ccc(S(=O)(=O)N2CCCCC2)cc1,20.9
15,O=C(NNC(=O)c1ccccc1[N+](=O)[O-])Nc1ccccc1C(F)(F)F,15.9
16,Cc1ccc(S(=O)(=O)N2CCC(C(=O)Nc3cc(C(F)(F)F)ccc3N3CCOCC3)CC2)cc1C,-7.08
17,COC(=O)C(/C=N/OCc1ccc([N+](=O)[O-])cc1)NC(=O)c1cccc(Cl)c1 (stereo not drawn),-29.1
18,O=C(CN1CCN(C(=O)c2ccco2)CC1)Nc1cc(Cl)ccc1Cl,-60.1
19,CC(=O)Nc1ccc2nc(-c3ccco3)[nH]c2c1,7.99
20,CC(=O)c1ccc(NC(=O)C2CCN(S(=O)(=O)c3ccc4c(c3)N(C(C)=O)CCO4)CC2)cc1,-0.485
21,O=C1c2ccccc2-c2onc3c(N4CCN(CCO)CC4)cc(N4CCN(C(=O)c5ccco5)CC4)c1c23,-22.1
22,CCOC(=O)[C@H]1[C@H]2COc3ccc(Br)cc3[C@@H]2N2C(=O)CN(CC3CCCO3)C(=O)[C@@]12C (stereo partly drawn),-10.8

row,Structure (SMILES),"hERG current change (%, negative = inhibition) at 10uM [%]"
1,COc1cc(OC)cc(C(=O)OCC(=O)NC(c2ccccc2)c2ccccc2)c1,6.21
2,O=C(c1cc2cc([N+](=O)[O-])ccc2oc1=O)N1CCOCC1,-0.062
3,Cc1ccc(N(CC(=O)N/N=C/c2cccs2)S(C)(=O)=O)cc1,-3.64
4,CCOc1ccc(NC2CCN(C(C)=O)CC2)cc1,9.81
5,COc1ccc(NC(=O)CSc2nnc(-c3cccnc3)n2C)cc1,8.3
6,Cc1cccc(C)c1NC(=O)c1c(O)c2ccccc2[nH]c1=O,12.1
7,CCOC(=O)c1ccccc1N1C(=O)C2Sc3[nH]c(=O)sc3C(/C=C/c3ccccc3)C2C1=O (stereo not drawn),5.45
8,CCOc1ccc(Cc2onc3c2C(=O)CC(C)(C)C3)cc1OCC,-14.6
9,Cc1cc(C)c(NC(=O)C2CCCN2CCO)c(C)c1 (stereo not drawn),-14.5
10,O=C(c1ccc(Cl)cc1)c1cc(-c2ccccn2)c(N2CCOCC2)s1,-54.9
11,O=C(Nc1ccccn1)c1ccc2c(c1)OCCO2,11.5
12,CC(C(=O)NCCc1ccc(S(N)(=O)=O)cc1)N1C(=O)CC(C)(C)Sc2ccccc21 (stereo not drawn),0.73
13,COc1ccc(CNC(=O)CN(c2cccc([N+](=O)[O-])c2)S(C)(=O)=O)cc1,-10.5
14,CN(C)C(CNC(=O)c1cccc(S(=O)(=O)Nc2ccc(Br)cc2)c1)c1ccco1 (stereo not drawn),-24.2
15,CC(C)CC(NC(=O)c1ccc(Cl)cc1Cl)C(=O)O (stereo not drawn),8.01
16,Cc1cc(C(=O)COC(=O)C2=NNC(=O)CC2)c(C)n1-c1cccc(C(F)(F)F)c1,-9.25
17,Cc1c(Cl)cccc1NC(=S)N1CCC(N(C)CC2CCCO2)CC1 (stereo not drawn),-2.97
18,Cc1cccc(N2CCN(C(=O)c3ccoc3C)CC2)c1C,-16.2
19,Cc1ccc(S(=O)(=O)N2CCOCC2)cc1C(=O)OCCOc1cccc(Cl)c1,-9.45
20,COc1ccc(CNC(=O)CN2C(=O)c3ccc([N+](=O)[O-])cc3C2=O)cc1,-1.07
21,Cc1cccc2cc(-c3nc4c(C)cccn4c3NCc3ccco3)c(=O)[nH]c12,-11.5
22,O=C(NC1CCN(Cc2ccccc2)CC1)c1ccc(Cn2c(=S)[nH]c3ccc(N4CCOCC4)cc3c2=O)cc1,11.3

row,Structure (SMILES),"hERG current change (%, negative = inhibition) at 10uM [%]"
1,CC(C)CCC(CCN1CCCC1)c1ccc2c(c1)OCO2.O=C(O)C(=O)O (stereo not drawn),-78.1
2,O=C(Nc1ccccc1)/C(=C/c1ccc([N+](=O)[O-])cc1)NC(=O)c1ccccc1,8.2
3,C[C@@H]1CCC(=O)N(C[C@@H](C)CSc2ccccc2)CC1,-18.2
4,CC(=O)c1ccc2c(c1)C1C=CCC1C(c1ccncc1)N2 (stereo not drawn),-21
5,CC(C(=O)Nc1cccc([N+](=O)[O-])c1)n1nnc2ccccc21 (stereo not drawn),-33.5
6,COc1cccc(OC)c1C(=O)N1CCN(Cc2ccccc2C(F)(F)F)CC1.O=C(O)C(=O)O,6.44
7,O=C(CCc1ccccc1)Nc1ccc2c(c1)C(=O)OC2,2.82
8,Cc1ccc(OCC(=O)NC2CC(C)(C)NC(C)(C)C2)cc1C,-1.24
9,CCOC(=O)c1c(NC(=O)CC2Nc3ccccc3NC2=O)sc(C)c1C (stereo not drawn),10.6
10,Cc1ccc(CC(=O)Nc2nncs2)cc1,14.5
11,COCCNS(=O)(=O)c1cccn1-c1ncc(C(F)(F)F)cc1Cl,3.15
12,O=C(Oc1cccc(C(=S)N2CCOCC2)c1)c1ccccc1,17.2
13,Nc1cc(C(=O)c2ccccc2)ccc1[N+](=O)[O-],-2.2
14,O=C(Nc1ccc(F)cc1F)N1CCN(CCc2ccccc2)CC1,-15.6
15,CCOC(=O)c1ccc(CNC(=O)Cn2nnc(-c3ccccc3F)n2)o1,-1.55
16,NC(=O)c1cc2cc([N+](=O)[O-])ccc2oc1=O,19.6
17,CN1CCN(c2nc(Nc3ccccc3)nc(N)c2[N+](=O)[O-])CC1,-40.6
18,Cc1ccc(CSc2ncnc3c2cnn3Cc2ccccc2)cc1,-4.44
19,Cc1ccc(S(=O)(=O)NCCc2ccncc2)cc1C,11.7
20,O=C(NCc1cccs1)[C@@H]1CSC2c3ccccc3C(=O)N21 (stereo partly drawn),8.92
21,COc1ccc(C(=O)NCc2nnc(SCC(=O)N3CCOCC3)o2)cc1OC,13.7

# Reference: PMC4336329 (PLoS ONE, 2015)
